Experimental data as given in PMC9911399, “Two distinct binding modes provide the RNA-binding protein RbFox with extraordinary sequence specificity”.
Changes are numbered by the printed parent chain; changes in the protein carry UniProt numbers. The list shows a part of the results.

T1: RBFOX1 RRM RbFoxmut (Fox-RRM*) (Homo sapiens, UniProt Q9NWB1 109-208, R118D;E147R;N151S;E152T)
T1 sequence: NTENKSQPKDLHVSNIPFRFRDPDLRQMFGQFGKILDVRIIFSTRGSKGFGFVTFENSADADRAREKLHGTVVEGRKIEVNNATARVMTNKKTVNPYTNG

B1: UGAAUCG (DNA:RNA)
RNA: GGGAGACCGGAAUUCAGAUUGUCCUGAAUCGUUAAAUCCCGUCGUAGCCACCA
DNA 1: CAATCTGAATTCCGGTCTCCC
DNA 2: TGGTGGCTACGACGGGATT
B2: CAGGUGC (DNA:RNA)
RNA: B1 RNA with U25C, G26A, A27G, A28G, C30G, G31C
DNA 1: CAATCTGAATTCCGGTCTCCC
DNA 2: TGGTGGCTACGACGGGATT
B3: GGGUGCG (DNA:RNA)
RNA: B1 RNA with U25G, A27G, A28U, U29G
DNA 1: CAATCTGAATTCCGGTCTCCC
DNA 2: TGGTGGCTACGACGGGATT
B4: UCCCGUU (DNA:RNA)
RNA: B1 RNA with G26C, A27C, A28C, U29G, C30U, G31U
DNA 1: CAATCTGAATTCCGGTCTCCC
DNA 2: TGGTGGCTACGACGGGATT
B5: UGACAGG (DNA:RNA)
RNA: B1 RNA with A28C, U29A, C30G
DNA 1: CAATCTGAATTCCGGTCTCCC
DNA 2: TGGTGGCTACGACGGGATT
B6: UAUUGCC (DNA:RNA)
RNA: B1 RNA with G26A, A27U, A28U, U29G, G31C
DNA 1: CAATCTGAATTCCGGTCTCCC
DNA 2: TGGTGGCTACGACGGGATT
B7: AAUCCUG (DNA:RNA)
RNA: B1 RNA with U25A, G26A, A27U, A28C, U29C, C30U
DNA 1: CAATCTGAATTCCGGTCTCCC
DNA 2: TGGTGGCTACGACGGGATT
B8: UGUUUUG (DNA:RNA)
RNA: B1 RNA with A27U, A28U, C30U
DNA 1: CAATCTGAATTCCGGTCTCCC
DNA 2: TGGTGGCTACGACGGGATT
B9: UGUGCCC (DNA:RNA)
RNA: B1 RNA with A27U, A28G, U29C, G31C
DNA 1: CAATCTGAATTCCGGTCTCCC
DNA 2: TGGTGGCTACGACGGGATT
B10: CAGAUAU (DNA:RNA)
RNA: B1 RNA with U25C, G26A, A27G, C30A, G31U
DNA 1: CAATCTGAATTCCGGTCTCCC
DNA 2: TGGTGGCTACGACGGGATT
B11: GGCCAGA (DNA:RNA)
RNA: B1 RNA with U25G, A27C, A28C, U29A, C30G, G31A
DNA 1: CAATCTGAATTCCGGTCTCCC
DNA 2: TGGTGGCTACGACGGGATT
B12: GCUGGGC (DNA:RNA)
RNA: GGGAGACCGGAAUUCAGAUUGUCCGCUGGGCUUAAAUCCCGUCGUAGCCACCA
DNA 1: CAATCTGAATTCCGGTCTCCC
DNA 2: TGGTGGCTACGACGGGATT
B13: AGUCGGG (DNA:RNA)
RNA: B12 RNA with G25A, C26G, G28C, C31G
DNA 1: CAATCTGAATTCCGGTCTCCC
DNA 2: TGGTGGCTACGACGGGATT
B14: ACGAGAC (DNA:RNA)
RNA: B12 RNA with G25A, U27G, G28A, G30A
DNA 1: CAATCTGAATTCCGGTCTCCC
DNA 2: TGGTGGCTACGACGGGATT
B15: GACCGAA (DNA:RNA)
RNA: B12 RNA with C26A, U27C, G28C, G30A, C31A
DNA 1: CAATCTGAATTCCGGTCTCCC
DNA 2: TGGTGGCTACGACGGGATT
B16: CAGAAUC (DNA:RNA)
RNA: B12 RNA with G25C, C26A, U27G, G28A, G29A, G30U
DNA 1: CAATCTGAATTCCGGTCTCCC
DNA 2: TGGTGGCTACGACGGGATT
B17: UCCGCAU (DNA:RNA)
RNA: B12 RNA with G25U, U27C, G29C, G30A, C31U
DNA 1: CAATCTGAATTCCGGTCTCCC
DNA 2: TGGTGGCTACGACGGGATT
B18: CGGUGUG (DNA:RNA)
RNA: B1 RNA with U25C, A27G, A28U, U29G, C30U
DNA 1: CAATCTGAATTCCGGTCTCCC
DNA 2: TGGTGGCTACGACGGGATT
B19: UGUCCGA (DNA:RNA)
RNA: B12 RNA with G25U, C26G, G28C, G29C, C31A
DNA 1: CAATCTGAATTCCGGTCTCCC
DNA 2: TGGTGGCTACGACGGGATT
B20: GCAGGCC (DNA:RNA)
RNA: B12 RNA with U27A, G30C
DNA 1: CAATCTGAATTCCGGTCTCCC
DNA 2: TGGTGGCTACGACGGGATT

The binders below were run against T1, RBFOX1 RRM RbFoxmut (Fox-RRM*) (assay: EMSA; HiTS-Eq, 1 nM pool, 10 min; buffer printed only for the single-RNA assays: 10 mM Tris pH 7.5, 150 mM NaCl, 3.4 mM EDTA, 0.001% NP-40, 30 C). Settings: tags: His6 N-terminal (pET28a); label: 5' 32P.
Method in brief: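 Relative association constants, normalised to the cognate motif, were derived by comparing read counts of each RNA species with those of the control reaction. The RNA sequenced was the free fraction, separated by 8% native PAGE after a 10 min equilibration in 50 µL of 1 nM 5′-radiolabelled RNA (7 randomized nucleotides) with increasing concentrations of purified wild-type or mutant RbFox RRM.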
With B1 the binding signal was 0.363 KA relative to UGCAUGU. For B2, the binding signal was 0.114 KA relative to UGCAUGU. B3 was tested, and the binding signal was 0.252 KA relative to UGCAUGU. B4 was tested, and the binding signal was 0.098 KA relative to UGCAUGU. In the case of B5, the binding signal is reported as 0.0736 KA relative to UGCAUGU. With B6 the binding signal was 0.259 KA relative to UGCAUGU. B7 was tested, and the binding signal was 0.0898 KA relative to UGCAUGU. B8 was tested, and the binding signal was 0.24 KA relative to UGCAUGU. With B9 the binding signal was 0.0862 KA relative to UGCAUGU. For B10, the binding signal was 0.0946 KA relative to UGCAUGU. In the case of B11, the binding signal is reported as 0.0665 KA relative to UGCAUGU. For B12, the binding signal was 0.104 KA relative to UGCAUGU. For B13, the binding signal was 0.0817 KA relative to UGCAUGU. In the case of B14, the binding signal is reported as 0.0918 KA relative to UGCAUGU. In the case of B15, the binding signal is reported as 0.0991 KA relative to UGCAUGU. For B16, the binding signal was 0.191 KA relative to UGCAUGU. B17 was tested, and the binding signal was 0.106 KA relative to UGCAUGU. In the case of B18, the binding signal is reported as 0.327 KA relative to UGCAUGU. B19 was tested, and the binding signal was 0.117 KA relative to UGCAUGU. With B20 the binding signal was 0.187 KA relative to UGCAUGU.
